In article PMC4336329 (PLoS ONE, 2015):
The campaign covered roughly 310,000 compounds. About 2,200 (0.71%) showed an effect of 50% or more. The effect is printed as a negative number. Some of the results follow.

Molecular target: human ether-à-go-go-related gene (hERG) potassium channel (human, UniProt Q12809)
Test: primary screen, population patch clamp on CHO cells stably expressing hERG

human ether-à-go-go-related gene (hERG) potassium channel, sequence (Q12809 whole entry, looked up): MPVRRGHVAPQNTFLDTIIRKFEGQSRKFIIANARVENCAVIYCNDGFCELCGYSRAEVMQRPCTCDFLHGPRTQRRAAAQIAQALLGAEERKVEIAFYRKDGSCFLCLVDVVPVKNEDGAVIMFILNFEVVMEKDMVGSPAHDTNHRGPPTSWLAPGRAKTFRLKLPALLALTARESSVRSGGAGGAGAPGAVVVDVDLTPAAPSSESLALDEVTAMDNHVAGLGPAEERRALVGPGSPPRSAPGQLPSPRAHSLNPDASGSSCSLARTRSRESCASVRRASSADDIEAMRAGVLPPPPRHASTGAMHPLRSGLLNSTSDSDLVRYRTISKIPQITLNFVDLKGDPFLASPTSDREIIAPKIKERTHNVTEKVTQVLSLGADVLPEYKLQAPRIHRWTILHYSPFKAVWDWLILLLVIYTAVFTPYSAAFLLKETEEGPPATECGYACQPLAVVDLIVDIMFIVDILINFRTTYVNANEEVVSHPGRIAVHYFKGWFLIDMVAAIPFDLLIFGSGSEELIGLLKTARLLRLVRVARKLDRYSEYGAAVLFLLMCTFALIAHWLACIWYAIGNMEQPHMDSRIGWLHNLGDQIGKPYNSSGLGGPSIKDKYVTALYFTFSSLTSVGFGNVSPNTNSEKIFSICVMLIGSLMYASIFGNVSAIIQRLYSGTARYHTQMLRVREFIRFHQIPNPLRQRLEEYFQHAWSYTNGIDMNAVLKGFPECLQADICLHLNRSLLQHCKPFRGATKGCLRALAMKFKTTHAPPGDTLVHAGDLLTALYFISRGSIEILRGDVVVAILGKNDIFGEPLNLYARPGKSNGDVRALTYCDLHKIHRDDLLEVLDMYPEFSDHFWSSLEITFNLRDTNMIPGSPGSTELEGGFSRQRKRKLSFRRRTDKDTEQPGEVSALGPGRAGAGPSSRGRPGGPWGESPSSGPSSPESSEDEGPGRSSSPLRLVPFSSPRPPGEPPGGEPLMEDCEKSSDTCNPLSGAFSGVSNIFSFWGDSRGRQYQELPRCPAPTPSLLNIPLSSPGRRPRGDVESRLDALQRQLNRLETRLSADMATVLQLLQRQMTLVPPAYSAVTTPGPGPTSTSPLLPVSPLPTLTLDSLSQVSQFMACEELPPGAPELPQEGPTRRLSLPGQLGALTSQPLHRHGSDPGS

Question: For `CSCCC(NC(=O)c1ccccc1Cl)C(=O)NCC(c1ccco1)N1CCCCC1` (stereo not shown), which “hERG current change (%, negative = inhibition) at 1uM” value is on record?
Answer: 14.6%

Question: Which “hERG current change (%, negative = inhibition) at 1uM” value does the source give for `COc1ccc(-c2cc(C(=O)N3CCN(c4ccc(F)cc4)CC3)no2)cc1OC` here?
Answer: 11.6%

Question: With `CC1CCCCC1NC(=S)Nc1ccc(Cl)cc1Cl` (stereo not shown) as the molecule, how does the “hERG current change (%, negative = inhibition) at 1uM” value read?
Answer: 5.95%

Question: With `CCOC(=O)c1c(NC(=O)C(=O)N/N=C(\C)c2ccc(OC)cc2)sc2c1CCCCC2` as the molecule, how does the “hERG current change (%, negative = inhibition) at 1uM” value read?
Answer: 8.9%

Question: Which “hERG current change (%, negative = inhibition) at 1uM” value does the source give for `COc1ccc(CNS(=O)(=O)c2ccc(-c3cc(C)no3)cc2)cc1` here?
Answer: 8.68%

Question: With `Cc1c(C(=O)O)sc2nc(/C=C/c3ccccc3OC(F)F)[nH]c(=O)c12` as the molecule, how does the “hERG current change (%, negative = inhibition) at 1uM” value read?
Answer: 5.17%

Question: How did the “hERG current change (%, negative = inhibition) at 1uM” value turn out when `COc1cc(-c2nn3c(COc4ccccc4)nnc3s2)cc(OC)c1OC` was run?
Answer: 21.7%

Question: Which “hERG current change (%, negative = inhibition) at 1uM” value does the source give for `O=C(O)C1=C[C@H](c2cccs2)C[C@H](OCCCCO)O1` here?
Answer: 10.6%

Question: How did the “hERG current change (%, negative = inhibition) at 1uM” value turn out when `COc1ccc2c(COC(=O)CNS(=O)(=O)c3ccc(C)c(C)c3)cc(=O)oc2c1` was run?
Answer: 11.5%

Question: `COC(=O)c1ccccc1C(=O)c1ccc2c(c1)NC(=O)CO2` was tested. Which “hERG current change (%, negative = inhibition) at 1uM” value did it give?
Answer: 13.8%

Question: Which “hERG current change (%, negative = inhibition) at 1uM” value does the source give for `Cn1c(=O)[nH]c(=O)c2c1nc(N1CCNCC1)n2Cc1ccccc1Cl` here?
Answer: 14.6%

Question: For `CCCCOc1ccc(CSC(CC(=O)O)C(=O)O)cc1` (stereo not shown), which “hERG current change (%, negative = inhibition) at 1uM” value is on record?
Answer: 17.4%

Question: `O=C(Cn1cc(C(=O)c2cccs2)c2ccccc21)NCC1CCCO1` (stereo not shown) was tested. Which “hERG current change (%, negative = inhibition) at 1uM” value did it give?
Answer: 16.3%

Question: With `Cc1cc(Cl)ccc1OCC(=O)N1C(C)CCCC1C` (stereo not shown) as the molecule, how does the “hERG current change (%, negative = inhibition) at 1uM” value read?
Answer: -10.8%

Question: Which “hERG current change (%, negative = inhibition) at 1uM” value does the source give for `COc1ccc(S(=O)(=O)Cc2ccc(C(=O)NCCCN(C)c3ccccc3)o2)cc1` here?
Answer: -6.34%

Question: With `CCCCCCCCCCNC(=O)CCn1[nH]c(=O)c2ccccc2c1=O` as the molecule, how does the “hERG current change (%, negative = inhibition) at 1uM” value read?
Answer: 12%

Question: For `COc1ccc(S(=O)(=O)NCc2ccccc2)cc1`, which “hERG current change (%, negative = inhibition) at 1uM” value is on record?
Answer: -6.58%

Question: `COc1ccc(CCNC(=O)CSc2cn(Cc3ccccc3)c3ccccc23)cc1OC` was tested. Which “hERG current change (%, negative = inhibition) at 1uM” value did it give?
Answer: 7.53%

Question: Which “hERG current change (%, negative = inhibition) at 1uM” value does the source give for `Cc1csc(NC(=O)c2sc3nc(-c4cccs4)ccc3c2N)n1` here?
Answer: 9.18%

Question: How did the “hERG current change (%, negative = inhibition) at 1uM” value turn out when `O=C1COCCOCCOCC(=O)NCCN1` was run?
Answer: 15%

Question: `C=C(C)CN1CC[C@]23c4c5ccc(O)c4O[C@H]2c2[nH]c4ccccc4c2C[C@@]3(O)C1C5.Cl.O` was tested. Which “hERG current change (%, negative = inhibition) at 1uM” value did it give?
Answer: 12.8%

Question: How did the “hERG current change (%, negative = inhibition) at 1uM” value turn out when `O=C(Cc1cccs1)Nc1nnc(SCC(=O)N2CCCCC2)s1` was run?
Answer: 3.07%

Question: How did the “hERG current change (%, negative = inhibition) at 1uM” value turn out when `Cc1ccc(-c2csc3ncn(CC(N)=O)c(=O)c23)cc1C` was run?
Answer: 15.1%

Question: For `CCNc1nc(NCC)n2c(SCC(=O)N(CC)C3CCCCC3)nnc2n1`, which “hERG current change (%, negative = inhibition) at 1uM” value is on record?
Answer: 11.8%

Question: Which “hERG current change (%, negative = inhibition) at 1uM” value does the source give for `COc1ccc(CCNC(=O)C2CCCN2C(=O)Nc2cccc(OC)c2)cc1` (stereo not shown) here?
Answer: 12.2%
